Data as given in the supplement of paper PMC12067230.
Single values of this set are uncertain.

assay: amyloid nucleation score relative to library mode (yeast Sup35 reporter selection) (log enrichment difference); higher = more amyloid nucleation; sequences are the first 22 residues of the Bri2 peptide extended by up to 12 random residues; conditions: random library (experiment): 1;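 active = nucleation score significantly above 0 at FDR 0.05; inactive = not significantly above 0 or absent from output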
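Further: [psi-pin-] Saccharomyces cerevisiae expressing SupN fusions, induced by 100 µM Cu2SO4, selected 7 d at 30 °C without adenine and uracil, scored by deep sequencing of output versus input.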

Sequence | amyloid nucleation score
EASNCFAIRHFENKFAVETLICVKPSVESGRSSV | -0.0664
EASNCFAIRHFENKFAVETLICCEAHHEHGDPSP | inactive
EASNCFAIRHFENKFAVETLICGWCQGLVPVQHK | 3.4
EASNCFAIRHFENKFAVETLICAAMVCRIQQGRA | 3.5
EASNCFAIRHFENKFAVETLICYLGIWLPVCLVW | inactive
EASNCFAIRHFENKFAVETLICLSEFRLLRRQVG | inactive
EASNCFAIRHFENKFAVETLICLVMDASLKYDGE | -0.029
EASNCFAIRHFENKFAVETLICCRADMSQMYM | 7.34
EASNCFAIRHFENKFAVETLICPNCATNWSVREA | inactive
EASNCFAIRHFENKFAVETLICVDSADGLCAHAL | inactive
EASNCFAIRHFENKFAVETLICLRF | -0.972
EASNCFAIRHFENKFAVETLICVSSCPDAQWVAP | inactive
EASNCFAIRHFENKFAVETLICLCVNAVILSRTV | inactive
EASNCFAIRHFENKFAVETLICVV | inactive
EASNCFAIRHFENKFAVETLICCRMETKTHVYWM | inactive
EASNCFAIRHFENKFAVETLICIVATSLSTFDTA | inactive

Sequence | amyloid nucleation score
EASNCFAIRHFENKFAVETLICNFVTSGHPRSHV | 7.9
EASNCFAIRHFENKFAVETLICARSR | inactive
EASNCFAIRHFENKFAVETLICISGPQMAGMASG | inactive
EASNCFAIRHFENKFAVETLICGLVRDCALRLRR | inactive
EASNCFAIRHFENKFAVETLICGYRMCPVMIIVW | inactive
EASNCFAIRHFENKFAVETLICGCQVLWCPPVFA | inactive
EASNCFAIRHFENKFAVETLICEMCLD | inactive
EASNCFAIRHFENKFAVETLICENV | 0.539
EASNCFAIRHFENKFAVETLICACSCNASYRPRL | 8.04
EASNCFAIRHFENKFAVETLICELSEPS | inactive
EASNCFAIRHFENKFAVETLICALGVSGLAWRNE | 5.17
EASNCFAIRHFENKFAVETLICFDELQFLGKAVA | inactive
EASNCFAIRHFENKFAVETLICNNNRFLCCSVSV | 6.31
EASNCFAIRHFENKFAVETLICGWLQRMWDGARP | inactive
EASNCFAIRHFENKFAVETLICPSVGVRPTTSRG | inactive
EASNCFAIRHFENKFAVETLICLSSRGAMCGVLV | inactive

same assay, conditions: random library (experiment): 2

Sequence | amyloid nucleation score
EASNCFAIRHFENKFAVETLICDFIRHSRTVRWL | inactive
EASNCFAIRHFENKFAVETLICHFEMLE | inactive
EASNCFAIRHFENKFAVETLICDLTVICYLGNGI | 7.82
EASNCFAIRHFENKFAVETLICRHSRVGTRGEPV | inactive
EASNCFAIRHFENKFAVETLICLNHHKMQFFLYQ | inactive
EASNCFAIRHFENKFAVETLICVAFYSSTNRKVS | inactive
EASNCFAIRHFENKFAVETLICFICYSICLRDRV | inactive
EASNCFAIRHFENKFAVETLICIWFDQAFGNIFL | 3.09
EASNCFAIRHFENKFAVETLICVCYHKVMIGSVA | inactive
EASNCFAIRHFENKFAVETLICTSGFRQGLQNRF | 2.05
EASNCFAIRHFENKFAVETLICVVPYEQTVQVVR | inactive
EASNCFAIRHFENKFAVETLICHGGVNSSVPVRV | inactive
EASNCFAIRHFENKFAVETLICMTAYSSF | inactive
EASNCFAIRHFENKFAVETLICNMYFCSKGSMRW | 7.69
EASNCFAIRHFENKFAVETLICCNRNAAAIIIWL | inactive
EASNCFAIRHFENKFAVETLICYLGCNTHFCRWI | inactive
EASNCFAIRHFENKFAVETLICFTCCLR | 7.83
EASNCFAIRHFENKFAVETLICFSRTSIIVLC | inactive
EASNCFAIRHFENKFAVETLICTHYKHRE | 2.2
EASNCFAIRHFENKFAVETLICVFNI | 6.19
EASNCFAIRHFENKFAVETLICVRGKNRESASKG | inactive
EASNCFAIRHFENKFAVETLICCWIGVLVSNSLR | 5.82
EASNCFAIRHFENKFAVETLICVRRPSASSSFNW | 0.533
EASNCFAIRHFENKFAVETLICVSKHCIRKSMFL | inactive
EASNCFAIRHFENKFAVETLICVVYNAEECSSKV | 6.73
EASNCFAIRHFENKFAVETLICWTRSRMENPLIV | inactive
EASNCFAIRHFENKFAVETLICFYNSLFSCGDCW | 6.85
EASNCFAIRHFENKFAVETLICNIQSWRFICLFM | inactive
EASNCFAIRHFENKFAVETLICVFILHPFPWFCR | inactive
EASNCFAIRHFENKFAVETLICYQVATYSSWNLC | 3.15

same assay, conditions: random library (experiment): 3

Sequence | amyloid nucleation score
EASNCFAIRHFENKFAVETLICGTEHYVDCRCAS | inactive
EASNCFAIRHFENKFAVETLICLSGVMPFGIHF | 6.91
EASNCFAIRHFENKFAVETLICFSYSRVDKLKEY | 0.261
EASNCFAIRHFENKFAVETLICDERLGFVLVSCA | inactive
EASNCFAIRHFENKFAVETLICGSCLLTREWARW | 7.4
EASNCFAIRHFENKFAVETLICFWKYLRVLGYGN | inactive
EASNCFAIRHFENKFAVETLICVRCEKESDVIVS | inactive
EASNCFAIRHFENKFAVETLICPSSRLLVRMKVR | inactive
EASNCFAIRHFENKFAVETLICRIGLKGGRFEWP | inactive
EASNCFAIRHFENKFAVETLICAFIAQFLVDRVG | inactive
EASNCFAIRHFENKFAVETLICIHVVC | inactive
EASNCFAIRHFENKFAVETLICAHSFDLSSVCRR | 4.32
EASNCFAIRHFENKFAVETLICGNSTLRIWGKDR | 1.85
EASNCFAIRHFENKFAVETLICCSDSAGMHPRRL | 3.82
EASNCFAIRHFENKFAVETLICKMVVNSHYLLLA | inactive
EASNCFAIRHFENKFAVETLICDSVVPRQHGGRP | inactive
EASNCFAIRHFENKFAVETLICTNVRVNGGCAGS | inactive
EASNCFAIRHFENKFAVETLICQQL | 0.297
EASNCFAIRHFENKFAVETLICTVLWFLFNRGRW | inactive
EASNCFAIRHFENKFAVETLICPTLCGT | inactive
EASNCFAIRHFENKFAVETLICRMACYRGFVAEN | inactive
EASNCFAIRHFENKFAVETLICVNLWSVLGYGLE | 5.21
EASNCFAIRHFENKFAVETLICLESASHQGDYPG | 1.14
EASNCFAIRHFENKFAVETLICQRTWDEIDVVGM | 0.684
